Paper PMC12136788
This is one part of the list.

T1: UNK ZnF1-6 (called full-length) (human, UniProt Q9C0B0 30-357)
T1 sequence: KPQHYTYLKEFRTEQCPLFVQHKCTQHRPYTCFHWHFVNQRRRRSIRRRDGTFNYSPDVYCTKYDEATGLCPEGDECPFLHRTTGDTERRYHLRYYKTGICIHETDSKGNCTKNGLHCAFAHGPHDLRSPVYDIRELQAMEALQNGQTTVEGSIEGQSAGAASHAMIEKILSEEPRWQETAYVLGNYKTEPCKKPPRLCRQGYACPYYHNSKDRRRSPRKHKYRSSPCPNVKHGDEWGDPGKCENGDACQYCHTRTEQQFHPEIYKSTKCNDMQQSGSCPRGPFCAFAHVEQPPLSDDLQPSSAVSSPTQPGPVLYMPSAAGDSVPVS

B1: chr12:102196458:102196651:-|three_prime_utr|ENSG00000183395|control|control|control (ssRNA)
RNA: GGGAGUUCUACAGUCCGACGAUCGGAGAAGCCCAUACUGCUACUAUAACUUGUGUAUGUUAAAUGUCUGUUUUAAAAGAAAGUAGUGUUAAGAUGUAUCAGUAACUGAAAUGAUAUGCUUUCUCUGUGCAUUAAACUUUGUGACAACAGAGGAUUGAGCAUCA
B2: chr9:123379744:123379845:-|3pUTR|ENSG00000119522|msi1|total|mutant (ssRNA)
RNA: GGGAGUUCUACAGUCCGACGAUCGUGUUUCAGCACCGAUUCCAGUUUCGCACCCUGGGCAGACCCCCAGGCCCCAUCCGGGACCGGGCAGAGGAGGUGCUGGCGGCCCCAGGGAAGGAGGGUGUGUACCCCAAGGCCCCCUGGCAACAGAGGAUUGAGCAUCA
B3: chr8:30843048:30843149:-|CDS|ENSG00000133863|unk|FALSE|unique (ssRNA)
RNA: GGGAGUUCUACAGUCCGACGAUCGGAUACUAUAAUUGCUUCCAGAAAGUCAGAUCAUCCAAUAAACGAAGCAACAAUUAGCAUAGAAAAUUCUAAAUUUAACAGUAAUUUGCUUGCACACCCAGAUAUUUGUUGUAUUAGUGACAACAGAGGAUUGAGCAUCA
B4: chr1:89933607:89933717:+|CDS|ENSG00000171492|unk|total|mutant (ssRNA)
RNA: GGGAGUUCUACAGUCCGACGAUCCAACUUUUGGUUCAAAUAUCCCAAAACAUGCUCAAAAGCCGAACAUUUUGUUUCAAUAUCCGGAAAGUGCUUUGAAUCCCCUUGGACGACAAAAGCGUUGUCUGAGACAGCAUGCGAAGACAACAGAGGAUUGAGCAUCA
B5: ENSG00000130508:stop:overlap|stop_codon|ENSG00000130508|stop_codon|NA|stop_codon (ssRNA)
RNA: GGGAGUUCUACAGUCCGACGAUCUGAACAUCCCAGGGGCCUGCUGUCCAGUCUGCUUACAGAAGAGGGCGGAGGAAAAGCCCUAGGCUCCUGGGAGGCUCCUCAGAGUUUGUCUGCUGUGCCAUCGUGAGAUCGGGUGGCCGACAACAGAGGAUUGAGCAUCA
B6: ENSG00000070961:be:win_2301|CDS|ENSG00000070961|bound_else_gene|NA|bound_elsewhere_windowed (ssRNA)
RNA: GGGAGUUCUACAGUCCGACGAUCAUCAUCUCCUACUGAUAAGCAUACACUGGUUAAAGGUAUAAUUGACAGCACUGUCUCAGACCAACGCCAGGUUGUAGCUGUAACUGGUGAUGGUACAAAUGAUGGCCCAGCACUAAAGAACAACAGAGGAUUGAGCAUCA
B7: chr1:179105649:179105771:-|3pUTR|ENSG00000143322|msi1|total|mutant (ssRNA)
RNA: GGGAGUUCUACAGUCCGACGAUCAGAAAGGAAACCUUGAUUCUUACCAUUGCUGCUCCAAAGGAGGCCCAGGUUAAGAGGAUCCGAGGAGACACGCGGUGCUGGGCAUUCCUGGCAGGUGUUGGGUGAUCCCCGCAGUAUGUCCAACAGAGGAUUGAGCAUCA
B8: chr22:41177882:41177989:+|CDS|ENSG00000100393|unk|total|mutant (ssRNA)
RNA: GGGAGUUCUACAGUCCGACGAUCCAAAACCUUUUGCGGACUCUCAGGUCUCCCAGCUCUCCCCUGCAGCAGCAACAGGUGCUCCGUAUCCUUCACGCCAACCCCCAGCUGUUGGCUGCAUUCAUCAAGCAGCGGGCUGCCAAGCAACAGAGGAUUGAGCAUCA
B9: chr12:95514132:95514176:+|3pUTR|ENSG00000111142|msi1_unk|FALSE|overlapping (ssRNA)
RNA: GGGAGUUCUACAGUCCGACGAUCCUUUUAAAUGCUAACUGUUUUUCCCCUUCCUGUCUAGGAAAAUGCUAUAAAGCUCAAAUUAGUUAGGAAUGACUUAUACGUUUUGUUUUGAAUACCUAAGAGAUACUUUUUGGAUAUUUACAACAGAGGAUUGAGCAUCA
B10: chr17:35724233:35724342:+|3pUTR|ENSG00000006125|msi1_unk|total|mutant (ssRNA)
RNA: GGGAGUUCUACAGUCCGACGAUCUCCUGGAGGCAGAGAUGCAGUUACCUACCCCCGCUUUUGAUGGGUUCUCUUACCUGCCGCCGCCUUAUCCCUGGUCAUUUGGAUUUUCAGUUUGCUUUUUUCUUUUUUUCCCCUCCAAACCAACAGAGGAUUGAGCAUCA
B11: chr3:31657911:31664018:-|three_prime_utr|ENSG00000144645|control|control|control (ssRNA)
RNA: GGGAGUUCUACAGUCCGACGAUCGGGUUUUUCUUGCUGAGCCCCCAAGACUGGAUAAAUACCAGGCAGGGGAAGGGAUGGACUAGGGCAGCUCGGUUCUGACUCCAGCUUUGGACAAGGCUUCAGGACAGGUUUUCUGCCACACAACAGAGGAUUGAGCAUCA
B12: chr3:50341111:50341409:-|three_prime_utr|ENSG00000004838|control|control|control (ssRNA)
RNA: GGGAGUUCUACAGUCCGACGAUCCGAUCUCCCUCCUCCUCACCCCAAGUGAAGGCUCGAGACUUCCUGCCCCACCCAGUGGGUAGGCCAAGUGUGUUGCUUCAGCAAACCGGACCAGGAGGGCCAGGGCCGGAUGUGGGGACCCAACAGAGGAUUGAGCAUCA
B13: chr14:100278170:100278208:+|3pUTR|ENSG00000100811|msi1_unk|FALSE|overlapping (ssRNA)
RNA: GGGAGUUCUACAGUCCGACGAUCGCUAUCUUAAUUUUGGUUGUAUUCUUUGAUGUUAACACAUUUUGUAUAAUUGUAUCGUAUAGCUGUAUUGAAUCAUGUAGUAUCAAAUAUUAGAUGUGAUUUAAUAGUGUUAAUCAAUUUCAACAGAGGAUUGAGCAUCA
B14: chr2:200823707:200823808:+|3pUTR|ENSG00000082153|msi1|total|mutant (ssRNA)
RNA: GGGAGUUCUACAGUCCGACGAUCUGAGUAACUUUGAUAAAGUUUUUCAUGCACAGGCAAAAUGUAUUCACCCGAUUUCUACGCCGUGAUCUGCUUUUACUUUGUAAUUUGCCGUUCUCAAAAGACUUUUUUUUAAAAAAAUAACAACAGAGGAUUGAGCAUCA

Biological target: T1, UNK ZnF1-6 (called full-length)
Assay: nsRBNS (natural sequence RNA bind-n-seq); RBNS binding buffer (assumed for nsRBNS): 25 mM Tris pH 7.5, 150 mM KCl, 3 mM MgCl2, 0.01% Triton X-100, 500 ug/ml BSA, 20 U/ml SUPERase-In, 4 C; UNK is unkempt and MSI1 is Musashi-1; names of the RNAs are library labels; protein concentration not given here; high values mean tight binding

Binder	binding signal [enrichment R]
B1	0.531
B2	0.59
B3	14.2
B4	0.262
B5	0.321
B6	0.364
B7	0.722
B8	0.882
B9	2.63
B10	0.669
B11	0.94
B12	0.749
B13	14.1
B14	0.553
